The campaign covered roughly 410,000 compounds. About 7,200 (1.8%) were called active. Inconclusive means that the source gave no clear call. Such entries were picked first, then a sample of the others. Calls follow the shape of the dose curve; as a rule, active = well fitted activation curve with a large enough effect; inconclusive = small, poorly fitted or top-dose-only effect, or another doubt; inactive = no such curve, though single readings can be large or run the other way. Potencies of inconclusive entries are left out as doubtful fits.
assay: qHTS of TDP-43 Inhibitors; conditions: TDP-43 expressing yeast growth rescue, BacTiter-Glo, 24 h; growth rescue (activation): at 46.1 µM (top of the series) unless noted; also: nearly all actives have a fitted effect of over 50% in size; as to growth rescue (activation): % of control where 0% means no effect
How it was run: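 Galactose-induced TDP-43 yeast, OD600=0.02, compound pinned; 24 hr, 30 deg C; BacTiter-Glo luminescence for growth. Inhibitors of TDP-43 toxicity read as activators.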
Potency is read from the fitted curve at half-maximal effect; tags tell the direction and shape of the fitted curve.

With `CC(=O)C1=C(O)C(=O)N(CCc2c[nH]c3ccccc23)C1c1ccccc1` (stereo unspecified) as the molecule, how does the “growth rescue (activation)” value read?
Its value is inactive: -12.7%.

For `CC(=O)c1ccc(N2CCN(S(=O)(=O)c3ccc4c(c3)CC(C)N4C(=O)C3CCC3)CC2)cc1` (stereo unspecified), which Potency is on record?
Its Potency is inconclusive [activator, partial curve].

With `CC(C)Cn1c(=O)c(CCC(=O)Nc2ccc(N3CCOCC3)cc2)nc2cc(Cl)ccc21` as the molecule, how does the Potency read?
Its Potency is inconclusive [activator, full curve, poor fit].

Which “growth rescue (activation)” value does the source give for `COc1cccc(C(=O)Nc2ccc(Cl)c(-c3nc4ccccc4[nH]3)c2)c1` here?
The value was inactive: -3.77%.

With `O=C(c1cc(-c2ccc(O)cc2)on1)N1CCc2ccccc2C1` as the molecule, how does the Potency read?
The Potency was active: 14.1 µM.

With `Cc1ccnc(NC(=O)c2ccc(Cl)s2)c1` as the molecule, how does the Potency read?
The Potency was inconclusive [activator, partial curve].

With `CC(C)c1nc(SCc2ccccn2)c2c(=O)n(C)c(=O)n(C)c2n1` as the molecule, how does the Potency read?
Its Potency is inconclusive [activator, partial curve, poor fit].

For `CCOC(=O)c1cccc(NC(=O)c2ccc3c(c2)nnn3C2CCCC2)c1`, which “growth rescue (activation)” value is on record?
The value was inactive: -4.68%.

Which Potency does the source give for `Cc1cc(C(=O)NCCc2ccc(Cl)cc2)c(C)o1` here?
Its Potency is inconclusive [activator, partial curve].

Which Potency does the source give for `Cc1ccc(Nc2nc(N)nc(CSc3ncccn3)n2)cc1` here?
The Potency was inconclusive [activator, single point].

For `O=C(NCCS(=O)(=O)N1CCN(c2ccc(F)cc2)CC1)C12CC3CC(CC(C3)C1)C2`, which Potency is on record?
The Potency was inconclusive [activator, partial curve].

With `COc1ccc(Cl)cc1NC(=O)c1ccco1` as the molecule, how does the “growth rescue (activation)” value read?
The value was inactive: 4.48%.

Which “growth rescue (activation)” value does the source give for `CCOc1ccc(NC(=O)c2cc3c(-c4ccccc4F)nn(C)c3s2)cc1` here?
The value was inactive: 7.59%.

For `S=c1[nH]c2ccccc2n1CCOc1ccccc1`, which Potency is on record?
Its Potency is inconclusive [activator, partial curve].

With `O=C(ONC1=NCCCCC1)c1ccc(Cl)cc1` as the molecule, how does the growth rescue (activation) read?
Its growth rescue (activation) is inconclusive: -92.7% [activator].

With `COc1ccccc1-c1cc(NC(C)=O)c2ncc(-c3ccc(S(C)(=O)=O)cc3)n2c1` as the molecule, how does the Potency read?
The Potency was inconclusive [activator, single point].

With `CCc1ccc(Nc2n[n+](-c3ccccc3)c(-c3cccc(Cl)c3Cl)s2)cc1` as the molecule, how does the Potency read?
Its Potency is active: 35.5 µM.

For `Cc1nc(NC(=O)CC(C)C)sc1-c1csc(Nc2ccc(Cl)cc2)n1`, which Potency is on record?
The Potency was inconclusive [activator, partial curve].

Which Potency does the source give for `Cc1ccc(C2NC(=O)c3ccccc3O2)cc1` (stereo unspecified) here?
Its Potency is inconclusive [activator, single point].

Which “growth rescue (activation)” value does the source give for `O=S(=O)(NCc1nc2cccnc2n1Cc1ccc(F)cc1)c1ccc2c(c1)CCCC2` here?
Its value is inactive: 18.9%.

For `COc1ccc(OCC2c3cc(OC)c(OC)cc3CCN2C(=O)c2ccc(F)cc2)cc1` (stereo unspecified), which Potency is on record?
The Potency was inconclusive [activator, single point].

For `COc1cc(SC)ccc1C(=O)NCCOc1ccc(Cl)cc1`, which Potency is on record?
Its Potency is active: 17.8 µM.

Which Potency does the source give for `COc1ccc([N+](=O)[O-])cc1NC(=O)CSCc1ccccc1C` here?
The Potency was active: 12.6 µM.

Which Potency does the source give for `N/C(=N\OC(=O)c1ccc(OCC(F)(F)F)nc1)c1ccc(Cl)cc1` here?
Its Potency is inconclusive [activator, full curve].

For `COC(=O)C1C2C=CC(C3CC23)C1C(=O)OCC(=O)c1ccc(OC)cc1` (stereo unspecified), which Potency is on record?
Its Potency is inconclusive [activator, partial curve].

Which Potency does the source give for `Oc1ccc(-c2nc3ccccc3nc2-c2ccccc2)cc1` here?
The Potency was inconclusive [activator, single point].

With `COc1ccc(C2=NO[C@@H]3C(=O)N(c4ccc(C)cc4C)C(=O)[C@H]23)cc1OC` as the molecule, how does the Potency read?
The Potency was inconclusive [activator, single point].

For `Cc1ccc(C(c2cc(Br)ccc2O)N2CCSCC2)cc1` (stereo unspecified), which Potency is on record?
The Potency was inconclusive [activator, single point].

For `COCCNc1nc(Oc2ccc(NC(C)=O)cc2)c2sc(-c3ccccc3)cc2n1`, which Potency is on record?
The Potency was inconclusive [activator, partial curve].

Which “growth rescue (activation)” value does the source give for `Cc1ccc(OCCn2cc(C(=O)C3CCCCC3)c3ccccc32)cc1` here?
The value was inactive: -19.2%.

For `CCSc1nnc(NC(=O)c2ccccn2)s1`, which Potency is on record?
Its Potency is inconclusive [activator, single point].

Which Potency does the source give for `CC(C)C(=O)N1CCN(c2nc3ccc(Cl)cc3s2)CC1` here?
Its Potency is inconclusive [activator, single point].

Which Potency does the source give for `O=C(c1ccc(Cl)cc1)N1CCC(C(=O)N2CCCc3ccccc32)CC1` here?
The Potency was active: 14.1 µM.

With `CCOC(=O)c1ccc(NC(=O)CC2C(=O)N(c3cccc(OC)c3)C(=O)N2C2CCCCC2)cc1` (stereo unspecified) as the molecule, how does the “growth rescue (activation)” value read?
The value was inactive: -1.66%.

Which Potency does the source give for `COc1ccc(N2C(=O)CC(Sc3ccccc3C(=O)O)C2=O)c([N+](=O)[O-])c1` (stereo unspecified) here?
Its Potency is inconclusive [activator, partial curve, poor fit].

For `CCCOc1cccc(-c2cc(C(=O)N/N=C/c3ccccn3)c3ccccc3n2)c1`, which Potency is on record?
The Potency was inconclusive [activator, single point].

With `O=C1NC(c2cccc3ccccc23)Nc2ccccc21` (stereo unspecified) as the molecule, how does the Potency read?
Its Potency is inconclusive [activator, single point].

With `CCOc1ccc(N2C(=O)CC(N3CCC(NC(=O)Nc4ccccc4)CC3)C2=O)cc1` (stereo unspecified) as the molecule, how does the Potency read?
Its Potency is inconclusive [activator, single point].

With `Cc1cc(NS(=O)(=O)c2ccc3c(c2)OCCO3)no1` as the molecule, how does the “growth rescue (activation)” value read?
Its value is inactive: 24.8%.

For `Cc1cc(C)c(NS(=O)(=O)c2ccc(-c3coc(C)n3)cc2)c(C)c1`, which “growth rescue (activation)” value is on record?
Its value is inactive: 30%.

Which Potency does the source give for `CC1CCCCC1NC(=O)NC(=O)COC(=O)c1cncc(Br)c1` (stereo unspecified) here?
The Potency was inconclusive [activator, single point].

For `Cc1ccc(NC(=S)Nc2ccc(OC(F)F)c(Cl)c2)cc1Cl`, which Potency is on record?
Its Potency is inconclusive [activator, partial curve].

With `c1ccc(-c2ccc(C3=Nn4c(nnc4-c4cccs4)SC3)cc2)cc1` as the molecule, how does the Potency read?
The Potency was inconclusive [activator, single point].

With `CCc1ccc(NC(=O)Cn2c(=O)n(-c3cc(OC)c(OC)c(OC)c3)c(=O)c3ccccc32)cc1` as the molecule, how does the “growth rescue (activation)” value read?
Its value is inactive: -11.4%.

Which Potency does the source give for `Cc1cccc(N2CCN(C(=O)c3noc4c3CCCCC4)CC2)c1C` here?
The Potency was active: 15.8 µM.

Which Potency does the source give for `Cc1ccccc1NC(=O)c1ccc2ccccc2c1` here?
The Potency was inconclusive [activator, full curve].

With `Cc1cccc(N2CCN(C(=O)C3(S(=O)(=O)c4ccc(Cl)cc4)CC3)CC2)c1C` as the molecule, how does the Potency read?
Its Potency is active: 35.5 µM.

For `COc1cccc(-c2cc(NC=O)c3ncc(-c4ccc(C(C)=O)cc4)n3c2)c1`, which Potency is on record?
The Potency was inconclusive [activator, partial curve].

Which Potency does the source give for `Cc1ccc(S(=O)(=O)N(C)CC(=O)Nc2nc3ccccc3s2)cc1` here?
The Potency was inconclusive [activator, single point].

Which Potency does the source give for `Cn1c(=O)c2c(ncn2Cc2ccc(Cl)cc2)n(C)c1=O` here?
The Potency was inconclusive [activator, partial curve].

Which Potency does the source give for `O=C1CC(N2CCN(c3ccccc3F)CC2)C(=O)N1c1ccc2c(c1)OCCO2` (stereo unspecified) here?
The Potency was inconclusive [activator, single point].

Which “growth rescue (activation)” value does the source give for `COc1ccc([N+](=O)[O-])cc1NC(=S)Nc1ccccc1` here?
Its value is inactive: -4.88%.

For `c1ccc(N2CCN(c3nc(-c4ccccn4)nc4ccccc34)CC2)cc1`, which Potency is on record?
Its Potency is inconclusive [activator, single point].

Which Potency does the source give for `c1ccc2c(c1)nc(NCC1CCCO1)c1nnnn12` (stereo unspecified) here?
Its Potency is inconclusive [activator, partial curve].

Which “growth rescue (activation)” value does the source give for `Cc1ccc(N(C)C(=O)CN2C(=O)CCc3cc(S(=O)(=O)N4CCOCC4)ccc32)cc1` here?
The value was inactive: 11.1%.

For `COCCn1cnc2c1c(=O)n(CC(=O)Nc1cc(C)on1)c(=O)n2Cc1ccccc1`, which “growth rescue (activation)” value is on record?
The value was inactive: 9.71%.

Which Potency does the source give for `CCOc1ccccc1NC(=O)CN(C)S(=O)(=O)c1cccc2nsnc12` here?
The Potency was inconclusive [activator, single point].

Which Potency does the source give for `Cc1cc(NC(=O)c2ccc(Cn3nc(C)c(Br)c3C)o2)no1` here?
The Potency was inconclusive [activator, single point].

Which Potency does the source give for `Nc1ccc2oc(=O)c(-c3ccccc3)cc2c1` here?
The Potency was inconclusive [activator, partial curve].

For `Cc1ccc(-n2ncc3c(NC4CCCCC4)ncnc32)cc1Cl`, which Potency is on record?
The Potency was inconclusive [activator, partial curve].

Which Potency does the source give for `O=C(NCc1ccccc1Cl)[C@H]1CCCN1C(=O)[C@H]1CCCN1C(=O)c1cccs1` here?
The Potency was inconclusive [activator, partial curve, poor fit].

For `S=C(Nc1ccc2c(c1)OCCO2)Nc1ccccc1Cl`, which Potency is on record?
Its Potency is inconclusive [activator, single point].

With `COc1ccc(OC)c(NC(=O)CN2CCCN(Cc3ccccc3Cl)S2(=O)=O)c1` as the molecule, how does the “growth rescue (activation)” value read?
The value was inactive: 0.466%.

Which Potency does the source give for `CCOc1ccccc1C(=O)NCc1nc2cccnc2n1Cc1ccc(C)cc1` here?
The Potency was active: 15.8 µM.

For `CCc1ccc(NC(=O)C(C)OC(=O)c2ccc(NS(=O)(=O)c3ccc(C)c([N+](=O)[O-])c3)cc2)cc1` (stereo unspecified), which “growth rescue (activation)” value is on record?
The value was inactive: 4.65%.

For `CCOc1cc(/C=N/O)ccc1OCc1ccc([N+](=O)[O-])cc1`, which Potency is on record?
Its Potency is inconclusive [activator, single point].

For `COc1ccc(CNC(=O)c2ccc3nccnc3c2)cc1`, which Potency is on record?
The Potency was inconclusive [activator, single point].

With `CC(=O)c1sc(NC(=O)C(C)C)nc1C` as the molecule, how does the “growth rescue (activation)” value read?
The value was inactive: 7.72%.

With `OCCn1c(-c2ccc3c(c2)OCO3)csc1=Nc1ccccc1` as the molecule, how does the Potency read?
The Potency was inconclusive [activator, single point].

With `COc1cc(O)c(C(CC(=O)N2CCN(c3ccccc3)CC2)c2ccc(N(C)C)cc2)c(OC)c1` (stereo unspecified) as the molecule, how does the “growth rescue (activation)” value read?
The value was inactive: -1.63%.

Which Potency does the source give for `COc1ccccc1Cc1c(-c2ccccc2)nc2ccc(Cl)cn12` here?
Its Potency is inconclusive [activator, single point].

— PubChem BioAssay AID652104 (National Center for Advancing Translational Sciences (NCATS), 2013)
